In all, about 33,000 sequences were measured (“E-score (-0.5 to 0.5)”: median about -0.011, highest 2% from about 0.28 on). This is one part of the list.
Biological target: T1, Gcr1 (UniProt P07261)
T1 sequence: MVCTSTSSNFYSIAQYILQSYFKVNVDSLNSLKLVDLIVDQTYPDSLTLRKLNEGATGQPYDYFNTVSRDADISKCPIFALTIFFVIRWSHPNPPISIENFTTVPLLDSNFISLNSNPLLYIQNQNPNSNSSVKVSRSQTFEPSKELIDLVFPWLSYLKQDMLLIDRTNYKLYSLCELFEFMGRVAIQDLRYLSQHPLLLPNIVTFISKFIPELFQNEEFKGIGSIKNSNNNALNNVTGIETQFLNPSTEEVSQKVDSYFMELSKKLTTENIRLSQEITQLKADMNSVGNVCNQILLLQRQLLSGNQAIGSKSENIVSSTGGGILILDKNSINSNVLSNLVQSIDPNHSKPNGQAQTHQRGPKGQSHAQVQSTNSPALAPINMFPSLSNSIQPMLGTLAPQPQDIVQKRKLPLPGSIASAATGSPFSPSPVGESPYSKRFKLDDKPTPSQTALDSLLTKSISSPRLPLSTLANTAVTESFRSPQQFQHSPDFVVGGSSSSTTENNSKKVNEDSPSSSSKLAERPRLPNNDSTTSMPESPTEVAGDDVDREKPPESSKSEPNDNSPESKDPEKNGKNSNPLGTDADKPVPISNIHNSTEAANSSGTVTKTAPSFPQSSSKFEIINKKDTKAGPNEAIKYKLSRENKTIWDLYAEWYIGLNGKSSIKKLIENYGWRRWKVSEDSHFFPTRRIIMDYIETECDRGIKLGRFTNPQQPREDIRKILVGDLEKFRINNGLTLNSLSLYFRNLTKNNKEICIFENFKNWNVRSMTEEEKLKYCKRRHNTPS
Assay: PBM E-score (8-mer binding enrichment) (E-score (-0.5 to 0.5)); higher = stronger / more preferred TF binding; most listed sequences are background and not binding sites
Conditions: protein concentration: 100 nM; construct: GST-full length
Method in brief: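 Masliner-normalised scans of fluorescent anti-GST signal were the basis for scoring. That signal came from GST-tagged yeast transcription factors applied at about 100-200 nM to double-stranded universal all-10-mer Agilent arrays on fresh or once-stripped slides. Each ungapped eight-base word, pooled with its reverse complement, received an E-score from the Universal PBM Analysis Suite.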

Row | Sequence | PBM E-score
1 | GATTATAA | 0.108
2 | ACTGGTCA | -0.079
3 | GCCGGTCC | -0.0849
4 | GCAGAGAA | -0.0151
5 | AATGGAAA | 0.123
6 | CCGGGGAA | 0.0357
7 | CGCGAGCC | -0.189
8 | CGGCTCAC | -0.0993
9 | GTTTACCA | -0.022
10 | ATCGATAG | -0.102
11 | CATCTTAG | 0.171
12 | ACGCGACA | 0.0601
13 | GCACTTTA | 0.109
14 | ATCTCGGG | 0.0258
15 | GCAGACCA | -0.295
16 | ACTCCTGC | -0.116
17 | AAGCAGAG | -0.11
18 | GCGTGGTA | -0.119
19 | ACGAGGAA | -0.0503
20 | ACGCGACT | -0.087
21 | GAATAAAC | 0.0663
22 | ATGCCAAT | 0.0573
23 | AGCGTCCC | 0.347
24 | ATCACCTC | -0.0869
25 | GTAGGGGA | 0.0193

Row | Sequence | PBM E-score
26 | ATTGGAGG | -0.121
27 | GCGCGTCA | -0.142
28 | CCGTCTCA | -0.0463
29 | ACTAGCTC | -0.0664
30 | CATGAAGG | -0.0414
31 | AATTTATA | 0.181
32 | AGCAAGTG | -0.152
33 | CATTCGGG | 0.0638
34 | CAATACGG | -0.0061
35 | CCGTCGCA | -0.108
36 | AAGGCCTT | -0.343
37 | CTTGTTAC | -0.121
38 | ATGGTTAA | -0.0581
39 | GCATCCAA | 0.366
40 | CGACTACC | -0.0379
41 | ATGCGACC | 0.00481
42 | GACTAACA | 0.0577
43 | CCTCTGTA | 0.103
44 | AGCAGACC | 0.107
45 | AAGTCGTG | 0.0312
46 | ACCGGTCC | -0.0748
47 | CGGTCACA | -0.00572
48 | ACAAAACG | -0.0227
49 | AATAGTGT | 0.125
50 | GAGGTAGC | 0.0843

Row | Sequence | PBM E-score
51 | TGCGGTAA | -0.097
52 | CCTATGCC | -0.248
53 | CACGGCCA | -0.0297
54 | CCAGCAAG | -0.241
55 | GGAGGGGA | 0.204
56 | GCCAACAA | 0.0652
57 | GAGAACTA | -0.0722
58 | CACCCAAG | 0.0733
59 | TCATAGCA | -0.0893
60 | CAAGATCC | 0.18
61 | CTTGAATC | -0.0608
62 | CTGGAGGA | 0.0832
63 | CCGACGAG | -0.22
64 | CGGGGCAG | -0.0418
65 | GATCCTGA | 0.0899
66 | CCGAGGGC | -0.309
67 | CAGCATCC | 0.447
68 | GCCGGGAA | -0.00974
69 | AAACGACG | 0.167
70 | AACCTAGG | -0.0399
71 | CGTGCTGA | -0.14
72 | AGCCTTAC | -0.135
73 | TACCCCCA | -0.142
74 | GGTTAAAA | 0.0973
75 | ACACGTAA | -0.0351

Row | Sequence | PBM E-score
76 | TGCCTTAA | -0.0846
77 | CTACTACC | 0.048
78 | GTCGCCCA | 0.181
79 | ATATAGGG | 0.0698
80 | CACACTGA | -0.137
81 | GTACAGAA | -0.125
82 | CTCACGCC | -0.0721
83 | AACCCGCC | -0.056
84 | GTGATGTA | -0.0573
85 | GGGAGACC | -0.103
86 | GAAAGGGC | -0.149
87 | AAGACAAG | 0.0261
88 | GCAAGTAC | -0.139
89 | AATCGATC | -0.0532
90 | AGATGTGG | 0.0129
91 | AGCATGAC | -0.286
92 | CTGAGTCC | -0.0288
93 | CGTGGGTA | -0.0417
94 | CTTGTCAC | -0.198
95 | AATTGTTC | 0.0249
96 | TAGTCTAA | -0.0682
97 | CCGAGCGC | -0.0224
98 | CCTAAACA | 0.147
99 | ATATCCAA | 0.0262
100 | GCAAGGCC | -0.31

Row | Sequence | PBM E-score
101 | CGCTAACG | -0.18
102 | TTCTCCAA | 0.0271
103 | CCCCTTAG | -0.0705
104 | ACTAGTCG | 0.065
105 | CGATTGCA | -0.103
106 | ACTCTAAG | -0.0197
107 | ATTCGTGC | 0.089
108 | CATCGAAG | -0.186
109 | AATTCTGG | 0.122
110 | GATTCGTA | 0.15
111 | AACAACCC | -0.0603
112 | CTGTCCTA | -0.0722
113 | TCTCCAAA | 0.114
114 | CGCTATCC | 0.0288
115 | AGGTCTAC | -0.166
116 | GTATATTA | 0.119
117 | ACTCATTC | 0.0285
118 | AAGTGCTG | 0.128
119 | AATGTTGA | -0.0167
120 | TGATAGAA | 0.0528
121 | GATTCTTA | 0.238
122 | AAAGGCTT | -0.194
123 | CCGGTACG | -0.0393
124 | CTTCCACC | 0.0074
125 | AGGAGTAA | -0.283

Row | Sequence | PBM E-score
126 | GAGCTTAA | -0.0131
127 | ACTTATTA | 0.27
128 | CATAAGCG | -0.234
129 | ACCAGTTC | 0.121
130 | CCTTGGCG | -0.218
131 | CGAATAGA | 0.0207
132 | GCACTCGA | -0.117
133 | GCCATCCA | 0.086
134 | CGTGTGAC | -0.186
135 | CCGGAGAA | -0.189
136 | ATCTAGTA | 0.0833
137 | GTCCGTAA | 0.215
138 | GCTGTTCC | -0.0695
139 | ATGCTATG | -0.0316
140 | AAGTTGGC | -0.0431
141 | ATCAGGGA | 0.0483
142 | ACATGTCT | -0.133
143 | ATAGCGAC | -0.00434
144 | AAAGTGAG | 0.0964
145 | CGCAGCGC | 0.15
146 | ATTCGTCC | 0.115
147 | ATATACGA | 0.0754
148 | ACGAAACT | 0.0936
149 | GCGCCCAC | 0.317
150 | AGAGGGCA | -0.217

Row | Sequence | PBM E-score
151 | GTCTCTTA | -0.0385
152 | CGCATTCA | 0.174
153 | AATGCTAC | -0.0602
154 | CTAGTGGA | 0.298
155 | ATGACTGA | -0.0659
156 | GAACCGCA | 0.125
157 | AACCTAGA | 0.112
158 | AAGCAACG | 0.00994
159 | AGAGCCGC | 0.0326
160 | ACGAAGCT | 0.399
161 | ATGTAGCC | -0.00792
162 | ACATTGGA | 0.147
163 | ATTTAATG | 0.0943
164 | ACGGGTCG | 0.0762
165 | ATATCACC | 0.0338
166 | TGAAGGAA | -0.104
167 | CGCGCCAA | 0.115
168 | CCGTTCTA | 0.0976
169 | CCGCAACA | -0.0641
170 | CGCATCAG | 0.0645
171 | CATGGCAG | 0.0933
172 | AGCGCTGA | -0.171
173 | TATTGAAA | 0.0358
174 | GCTGATCA | -0.0784
175 | ATTGCCCG | -0.0949

Row | Sequence | PBM E-score
176 | ATTCTTGA | 0.124
177 | ATGATCAA | -0.104
178 | GGTCCTAC | -0.141
179 | CCGGTTAC | 0.185
180 | ATCAACCA | 0.0911
181 | CCGAGCCG | -0.0743
182 | GATTTCAC | -0.0263
183 | GGGCGTCA | -0.0614
184 | GCCGCCAA | 0.125
185 | CCCTCACC | 0.0473
186 | CGCAAATA | -0.0166
187 | AGTCGAAC | -0.0703
188 | CAATCGCC | -0.0622
189 | AGCGATCG | -0.292
190 | AATTCAAT | 0.0549
191 | ATCAGCAC | 0.185
192 | GAACATGC | -0.179
193 | ACGAAATC | 0.0896
194 | CCGACGCA | -0.165
195 | AACCGGAA | 0.2
196 | AATGGGCT | -0.0285
197 | TGGGGTAA | -0.0434
198 | GCGCGGCC | -0.0347
199 | ACGCCCTG | 0.189
200 | CATGCGCA | -0.147

Row | Sequence | PBM E-score
201 | CAACACAA | 0.0702
202 | ATAACATG | -0.151
203 | AGCGCTGC | -0.216
204 | ACCCAATA | 0.126
205 | AATGTAAG | -0.101
206 | ATACATAT | 0.0476
207 | ACGCAGGA | 0.00808
208 | GATAATAC | -0.0678
209 | GCTTTAAA | 0.171
210 | CCGCGTCG | -0.16
211 | AAGAGGGG | 0.0114
212 | AACAGGGA | 0.137
213 | CGAATGCA | -0.0162
214 | AGGAGCAC | 0.163
215 | CATGTGTA | -0.0616
216 | AGGCCAAG | -0.245
217 | AGATATTC | -0.0178
218 | AATAAACG | 0.132
219 | ACATCTTG | -0.0325
